Measured values taken from PubChem BioAssay (NCATS).
Inconclusive results, whose numbers are uncertain, are shown with a selection of clear calls. Entries that show only a call come without a potency. Potencies of inconclusive entries are doubtful fits and often do not repeat. Activity calls are given as the source filed them. Calls follow the shape of the dose curve; as a rule, active = well fitted cell-killing curve with a large enough effect; inconclusive = small, poorly fitted or top-dose-only effect; inactive = no such curve, though single readings can be large or run the other way.

Assay: qHTS of pediatric cancer cell lines to identify multiple opportunities for drug repurposing: Primary screen for SJ-GBM2 cells (AID 1347091)
Settings: SJ-GBM2 viability, CellTiter-Glo luminescence, 48 h; series mostly up to 46 µM
Procedure, shortened: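 Eight- or eleven-point concentration series, 48 h treatment at 37 degrees C in growth media; readout CellTiter-Glo luminescence. Potency and efficacy were taken from the concentration-response curves.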
Potency is read from the fitted curve at half-maximal effect; tags tell the direction and shape of the fitted curve.

Which Potency does the source give for `C[C@]12CC[C@H](O)CC1=CC[C@@H]1[C@@H]2CC[C@]2(C)C(=O)CC[C@@H]12` here?
The Potency was “inactive”.

Which Potency does the source give for `COc1cc(CC(C)N)cc2c1OCO2` (stereo not drawn) here?
The Potency was “inactive”.

For `CCOC(=O)c1cncn1[C@H](C)c1ccccc1`, which Potency is on record?
The Potency was “inactive”.

For `CCOCCOC(C)=O`, which Potency is on record?
Its Potency is “inactive”.

Which Potency does the source give for `COC[C@H]1OC(=O)c2coc3c2[C@@]1(C)C1=C(C3=O)C2CCC(=O)[C@@]2(C)C[C@H]1OC(C)=O` (stereo partly drawn) here?
Its Potency is active: 0.264 µM.

Which Potency does the source give for `CCCN1CCO[C@@H]2c3cc(O)ccc3OC[C@@H]21` here?
The Potency was inconclusive: 11.8 µM [cytotoxic, partial curve].

With `COCC(=O)N(c1c(C)cccc1C)C(C)C(=O)OC` (stereo not drawn) as the compound, how does the Potency read?
Its Potency is “inactive”.

Which Potency does the source give for `COC(=O)C(Cl)C(=O)OC` here?
Its Potency is “inactive”.

Which Potency does the source give for `CCOP(=S)(OCC)Oc1ccc2c(C)c(Cl)c(=O)oc2c1` here?
Its Potency is “inactive”.

Which Potency does the source give for `CC(NC(C)(C)C)C(=O)c1cccc(Cl)c1` (stereo not drawn) here?
Its Potency is “inactive”.

Which Potency does the source give for `CC1(N2CCC(n3c([C@@H]4CCCNC4)nc4ccccc43)CC2)CCCCCCC1` here?
The Potency was inconclusive: 20.9 µM [cytotoxic, partial curve].

With `CC[N+]1(CC)CCC(OC(=O)C(O)(c2ccccc2)c2ccccc2)C1` (stereo not drawn) as the compound, how does the Potency read?
The Potency was “inactive”.

Which Potency does the source give for `CN(C)CCc1c[nH]c2ccccc12` here?
Its Potency is “inactive”.

With `C=CCC1(C(C)CC)C(=O)NC(=O)NC1=O` (stereo not drawn) as the compound, how does the Potency read?
Its Potency is “inactive”.

With `Oc1ccc2c3c1O[C@H]1c4[nH]c5c(c4C[C@@]4(O)[C@@H](C2)N(CC2CC2)CC[C@]314)C[C@@]1(O)[C@H]2Cc3ccc(O)c4c3[C@@]1(CCN2CC1CC1)[C@H]5O4` as the compound, how does the Potency read?
Its Potency is “inactive”.

With `C[C@]12CC[C@@H]3c4ccc(OC(=O)N(CCCl)CCCl)cc4CC[C@H]3[C@@H]1CC[C@@H]2O` as the compound, how does the Potency read?
Its Potency is inconclusive: 29.9 µM [cytotoxic, single point].

With `CC(=O)OC1(c2ccccc2)CCN(CCc2ccccc2)CC1` as the compound, how does the Potency read?
The Potency was inconclusive: 49.5 µM [cytotoxic, partial curve, poor fit].

For `Clc1cccc(SC2CCNCC2)n1`, which Potency is on record?
The Potency was “inactive”.

With `O=C(Nc1ccc(Br)cc1)c1cc(Br)cc(Br)c1O` as the compound, how does the Potency read?
The Potency was inconclusive: 18.8 µM [cytotoxic, single point].

Which Potency does the source give for `O=C(N[C@H]1N=C(c2ccccc2F)c2cccc3c2N(CC3)C1=O)c1cc2ccccc2[nH]1` here?
Its Potency is “inactive”.

For `Cc1ccc(-c2nc3ccc(C)cn3c2CC(=O)N(C)C)cc1`, which Potency is on record?
The Potency was “inactive”.

For `O=S(=O)(c1ccc(Cl)cc1)c1ccc(Cl)cc1`, which Potency is on record?
The Potency was inconclusive: 55 µM [cytotoxic, single point].

With `C=CCOC(Cn1ccnc1)c1ccc(Cl)cc1Cl` (stereo not drawn) as the compound, how does the Potency read?
Its Potency is “inactive”.

For `CC(CC(C#N)(c1ccccc1)c1ccccc1)N(C)C` (stereo not drawn), which Potency is on record?
Its Potency is inconclusive: 68.6 µM [cytotoxic, partial curve, poor fit].

Which Potency does the source give for `C[CH2][Hg][S]c1ccccc1C(=O)O` here?
The Potency was inconclusive: 29.9 µM [cytotoxic, single point].

Which Potency does the source give for `CC(C)=CCN1CC[C@@]2(C)c3cc(O)ccc3C[C@@H]1[C@@H]2C` here?
The Potency was inconclusive: 67.2 µM [cytotoxic, partial curve, poor fit].

With `CN(C)CCc1c[nH]c2cccc(OP(=O)(O)O)c12` as the compound, how does the Potency read?
Its Potency is “inactive”.

With `CC(C)(C)C(O)C(Oc1ccc(Cl)cc1)n1cncn1` (stereo not drawn) as the compound, how does the Potency read?
The Potency was “inactive”.

For `CCN(CC)CCOC(=O)C(C)(c1ccccc1)c1ccccc1`, which Potency is on record?
The Potency was “inactive”.

Which Potency does the source give for `N[C@@H]1C[C@H]1c1ccccc1` here?
The Potency was “inactive”.

Which Potency does the source give for `C[C@]12CC[C@@H]3c4ccc(OC(=O)N(CCCl)CCCl)cc4CC[C@H]3[C@@H]1CC[C@@H]2OP(=O)(O)O` here?
The Potency was active: 16.6 µM.

With `CCCCCCCCCC(CC)c1ccc(S(=O)(=O)O)cc1` (stereo not drawn) as the compound, how does the Potency read?
The Potency was inconclusive: 21.7 µM [cytotoxic, partial curve].

Which Potency does the source give for `C[C@]12CC[C@H]3[C@@H](CCC4=CC(=O)CC[C@@H]43)[C@@H]1CC[C@@H]2OC(=O)CCc1ccco1` here?
The Potency was inconclusive: 16.8 µM [cytotoxic, single point].

With `c1cc2c(c(N3CCNCC3)c1)OCCO2` as the compound, how does the Potency read?
The Potency was “inactive”.

With `CCCN(CCC)C(=O)Cc1c(-c2ccc(Cl)cc2)nc2ccc(Cl)cn12` as the compound, how does the Potency read?
Its Potency is inconclusive: 9.44 µM [cytotoxic, partial curve, poor fit].

Which Potency does the source give for `CCC(C)(C)c1ccc(O)cc1` here?
Its Potency is “inactive”.

With `CC1COC2(c3ccccc3Cl)c3cc(Cl)ccc3NC(=O)CN12` (stereo not drawn) as the compound, how does the Potency read?
The Potency was inconclusive: 26.6 µM [cytotoxic, single point].

For `CCO/N=C(\CC)C1=C(O)CC(c2c(C)cc(C)cc2C)CC1=O` (stereo not drawn), which Potency is on record?
Its Potency is inconclusive: 13.7 µM [cytotoxic, partial curve].

For `CC#C[C@]1(O)CC[C@H]2[C@@H]3C[C@H](C)C4=CC(=O)CC[C@]4(C)[C@H]3CC[C@@]21C`, which Potency is on record?
The Potency was inconclusive: 33.5 µM [cytotoxic, single point].

With `CC(C(=O)c1ccccc1)N(C)C` (stereo not drawn) as the compound, how does the Potency read?
The Potency was “inactive”.

Assay: qHTS of pediatric cancer cell lines to identify multiple opportunities for drug repurposing: Primary screen for A673 cells (AID 1347092); also: nearly all actives have a fitted effect of over 45% in size
Settings: A673 Ewing sarcoma viability, CellTiter-Glo ATP luminescence, 48 h; activity change, negative = cytotoxic: at 46 µM (top of the series) unless noted
Procedure, shortened: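 Luminescence from CellTiter-Glo, taken after 15 min at room temperature, served as the proxy for metabolically active cells following 48 h treatment. Both potency and efficacy were taken from curves fitted to the titration data.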

For `COc1cc(CC(C)N)cc2c1OCO2` (stereo not drawn), which activity change, negative = cytotoxic is on record?
Its activity change, negative = cytotoxic is inconclusive: -30% [cytotoxic] [at 92.7 µM].

With `CCOC(=O)c1cncn1[C@H](C)c1ccccc1` as the compound, how does the Potency read?
Its Potency is “inactive”.

For `CCOCCOC(C)=O`, which Potency is on record?
Its Potency is “inactive”.

With `CCCN1CCO[C@@H]2c3cc(O)ccc3OC[C@@H]21` as the compound, how does the Potency read?
The Potency was inconclusive: 14.8 µM [cytotoxic, partial curve].

For `CCOP(=S)(OCC)Oc1ccc2c(C)c(Cl)c(=O)oc2c1`, which Potency is on record?
The Potency was active: 0.001 µM.

Which Potency does the source give for `CC1(N2CCC(n3c([C@@H]4CCCNC4)nc4ccccc43)CC2)CCCCCCC1` here?
Its Potency is active: 11.8 µM.

With `CC[N+]1(CC)CCC(OC(=O)C(O)(c2ccccc2)c2ccccc2)C1` (stereo not drawn) as the compound, how does the Potency read?
The Potency was “inactive”.

For `CC(=O)OC1(c2ccccc2)CCN(CCc2ccccc2)CC1`, which Potency is on record?
The Potency was inconclusive: 55.6 µM [cytotoxic, single point].

With `O=C(Nc1ccc(Br)cc1)c1cc(Br)cc(Br)c1O` as the compound, how does the Potency read?
The Potency was inconclusive: 26.6 µM [cytotoxic, single point].

Which Potency does the source give for `C=CCOC(Cn1ccnc1)c1ccc(Cl)cc1Cl` (stereo not drawn) here?
The Potency was inconclusive: 33.5 µM [cytotoxic, single point].

With `CCN(CC)CCOC(=O)C(C)(c1ccccc1)c1ccccc1` as the compound, how does the Potency read?
The Potency was “inactive”.

For `CCCCCCCCCC(CC)c1ccc(S(=O)(=O)O)cc1` (stereo not drawn), which Potency is on record?
The Potency was inconclusive: 30.6 µM [cytotoxic, partial curve, poor fit].

For `CCCN(CCC)C(=O)Cc1c(-c2ccc(Cl)cc2)nc2ccc(Cl)cn12`, which activity change, negative = cytotoxic is on record?
The activity change, negative = cytotoxic was inconclusive: -50.1%.
